# Among all 370,000 compounds or so, about 150 (0.041%) were called active. Inconclusive means that the source gave no clear call. Such entries were picked first, then a sample of the others. The call rests on the fitted dose curve; in most records, active means well fitted inhibition curve with a large enough effect; inconclusive means small, poorly fitted or top-dose-only effect; inactive means flat fitted curve, though single readings scatter. Potencies of inconclusive entries are left out as doubtful fits.
# Biological target: Beta-lactamase (Escherichia coli (strain K12)) (UniProt P00811)
# Assay: qHTS Inhibitors of AmpC Beta-Lactamase (assay with detergent); further: nearly all actives have a fitted effect of over 25% in size;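 on activity change, negative = inhibition: 0% = no-compound wells and -100% = no-enzyme wells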
# Settings: AmpC hydrolysis of nitrocefin, absorbance 480 nm, 0.01% Triton; activity change, negative = inhibition: at 114 µM (top of the series)
# Method in brief: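 20 mM phosphate pH 7.0 + 0.01% (detergent screen) or 0.0001% Triton X-100; 5.3 nM AmpC reagent; cpd preinc 15 min RT; nitrocefin (800 uM stock) to start; A480 q20 s × 4 min; Activity was normalised to no-enzyme and no-compound control wells.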
# Potency means the concentration at half of the fitted maximal effect; tags describe the fitted curve by direction and shape.
# UniProt P00811, sequence (P00811 whole entry, looked up): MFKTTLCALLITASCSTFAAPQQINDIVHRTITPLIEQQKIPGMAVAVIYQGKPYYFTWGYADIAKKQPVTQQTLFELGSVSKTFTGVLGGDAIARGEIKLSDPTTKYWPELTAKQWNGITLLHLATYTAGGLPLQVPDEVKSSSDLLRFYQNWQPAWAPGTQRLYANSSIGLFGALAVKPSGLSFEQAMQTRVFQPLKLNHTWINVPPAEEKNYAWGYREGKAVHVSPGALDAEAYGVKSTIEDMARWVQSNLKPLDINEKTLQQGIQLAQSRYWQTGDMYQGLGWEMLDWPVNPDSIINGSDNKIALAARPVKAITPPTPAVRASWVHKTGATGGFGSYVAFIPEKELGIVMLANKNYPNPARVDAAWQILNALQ
Structure (SMILES),"activity change, negative = inhibition",Potency
O=S(=O)(Nc1ccc(F)cc1F)c1ccc(-n2cccn2)cc1,inactive: -6.71%,
CCN(CC)C(=O)CC1(c2ccccc2OC)CCOC(C(C)C)C1 (stereo unspecified),,"inconclusive [inhibitor, full curve]"
CC(C)/C=N/NC(=O)c1ccc(Cl)cc1,,"inconclusive [inhibitor, partial curve, poor fit]"
C#CCOCCOCCOCCNc1nc(N2CCN(C(=O)CCCCCCCCCCNC(=O)[C@H](CCCCN)n3cc(C)nn3)CC2)nc(N2CCN(C(=O)CCCCCCCCCCNC(=O)[C@H](CCCCN)n3cc(CCCC(=O)O)nn3)CC2)n1,,"inconclusive [inhibitor, single point]"
CCN(CC)c1ccc(-n2cc3c(=O)n(C)c(=O)n(C)c3c2)cc1,,"inconclusive [inhibitor, full curve, poor fit]"
CC(=O)c1cc(-c2ccccc2)n(CC(=O)NCc2cccs2)c1C,,"inconclusive [inhibitor, full curve]"
Cc1cccc(N2CCN(C(=O)C3CCN(c4ncnc5c4nc4n5CCCCC4)CC3)CC2)c1C,,inactive
COc1ccc(CNn2c(-c3cccc(C)c3)nc3ccccc3c2=O)cc1OC,,"inconclusive [inhibitor, single point]"
CCOC(=O)N1CCN(C(=O)CSc2nc3c(cnn3-c3ccccc3)c(=O)[nH]2)CC1,,"inconclusive [inhibitor, single point]"
COc1ccc(/C(O)=C2/C(=O)C(=O)N(CCCN(C)C)C2c2ccccc2)cc1OC (stereo unspecified),,"inconclusive [inhibitor, full curve, poor fit]"
CCCCN(CCCC)CCCNC(=O)CC1Oc2ccc(C)cc2NC1=O (stereo unspecified),,"inconclusive [inhibitor, full curve, poor fit]"
Cc1cc2c(cc1C)C(c1ccccc1Br)CC(=O)N2 (stereo unspecified),inactive: -4.48%,
O=C(O)CCn1cc(/C=C2\NC(=S)N(c3ccccc3)C2=O)c(-c2ccc(Br)cc2)n1,inactive: -2.74%,
O=C(NCCCN1CCOCC1)C(=O)N/N=C/c1ccccc1,,"inconclusive [inhibitor, full curve, poor fit]"
O=C(C1COc2ccccc2O1)N1CCCC1 (stereo unspecified),,"inconclusive [inhibitor, single point]"
Cc1ccsc1/C=N/N=C/c1sccc1C,inactive: 10.5%,
C=CCNC(=S)NNc1nc(N2CCCC2)nc(N2CCCC2)n1,,"inconclusive [inhibitor, single point]"
C=C1c2cc3c(cc2NC(=S)N1Cc1ccccc1)OCO3,inactive: -6.34%,
CC1=Nc2cc(C(=O)NCCN3CCOCC3)ccc2Sc2c(C)ccc(C)c21,inactive: -13.4%,
Cc1ccc(-n2c(/C=C/c3ccc4c(c3)OCO4)nc3ccccc3c2=O)cc1,inactive: 0.396%,
O=C(Nc1nnc(SCC(=O)N2CCCc3ccccc32)s1)c1ccccc1,inactive: -9.98%,
Cc1ccc(S(=O)(=O)N2CCN(CCNC(=O)C(=O)NCc3ccccc3)CC2)cc1,inactive: -0.426%,
Cn1c(SCc2cccc(F)c2)nnc1-c1cnccn1,inactive: -0.425%,
COc1ccc(CN/C(C)=C(/C#N)C(N)=O)cc1OC,,"inconclusive [inhibitor, full curve, poor fit]"

Structure (SMILES),"activity change, negative = inhibition",Potency
Cc1ccc(-c2csc(N3CCC(C(N)=O)(N4CCCCC4)CC3)n2)cc1,,"inconclusive [inhibitor, full curve, poor fit]"
COc1ccc(NC(=O)Nc2ncccc2C)cc1,,"inconclusive [inhibitor, partial curve, poor fit]"
CSc1ccccc1NC(=O)C1CCN(S(C)(=O)=O)CC1,,"inconclusive [inhibitor, partial curve, poor fit]"
Cc1onc(COc2ccccc2O)c1Br,,"inconclusive [inhibitor, full curve, poor fit]"
CC(=O)N(Cc1ccccc1)c1ncc2c(n1)c(=O)c(C#N)c1ccccn12,inactive: -9.61%,
CCOc1ccc(Oc2nc(NCC(C)C)nc(OC)n2)nn1,,"inconclusive [inhibitor, full curve]"
Cc1csc(SCC(=O)N2CCCC2)n1,,"inconclusive [inhibitor, full curve, poor fit]"
Cc1ccc(Cl)cc1N1CCN(CCCNC(=O)C2COc3ccccc3C2)CC1 (stereo unspecified),,"inconclusive [inhibitor, single point]"
O=C1OC(/C=C/c2ccccc2)=NC/1=C/c1ccco1,,"inconclusive [inhibitor, single point]"
O=C(/C=C/c1ccccc1)Nc1cccnc1,,"inconclusive [inhibitor, full curve]"
O=S1(=O)NC(c2ccccc2)CC(CC2CCCCC2)O1 (stereo unspecified),inactive: -9.35%,
O=C(Cn1cc2c(n1)CCCC2)NCc1cccc(Cl)c1,,"inconclusive [inhibitor, full curve, poor fit]"
COc1ccc(NC(=O)Cn2ncc(Cl)c(Cl)c2=O)cc1S(=O)(=O)N1CCOCC1,inactive: -14.9%,
Nc1c(C(=O)Nc2ccc(S(=O)(=O)N3CCCC3)cc2)sc2nc3cc4c(cc3cc12)CCC4,,"inconclusive [inhibitor, full curve, poor fit]"
COc1ccc2c3c([nH]c2c1)C1CC2C(CC(O)C(OC)C2C(=O)O)CN1CC3 (stereo unspecified),inactive: 0.305%,
COCCCn1c(SCC(=O)NC(C)C)nnc1-c1ccccc1,,"inconclusive [inhibitor, full curve, poor fit]"
CN(C(=O)CSc1nnc(-c2ccco2)n1C)C1CCCCC1,,"inconclusive [inhibitor, full curve]"
CS(=O)(=O)n1nc(-c2ccc(Cl)cc2)nc1SCc1ccccc1,inactive: -6.76%,
CCOc1cc(-c2ccc(OC(=O)c3ccc(C)cc3)c(OC)c2)cc(=O)c2c(C)oc(C)c12,inactive: -6.49%,
Cc1cc(C)c2c(CC(=O)Nc3ccc(S(=O)(=O)N4CCCCC4)cc3)coc2c1,inactive: 15.3%,
CS(=O)(=O)N(CC(=O)NCc1ccco1)c1cc(C(F)(F)F)ccc1Cl,,"inconclusive [inhibitor, partial curve]"
COc1cccc(-c2nn(C)c3sc(C(=O)NCc4ccco4)cc23)c1,inactive: -3.48%,
O=C(Nc1ncccc1O)c1ccc(Cl)c(S(=O)(=O)N2CCCCCC2)c1,,"inconclusive [inhibitor, partial curve]"
CCOC(=O)c1cc(-c2ccc(C)c([N+](=O)[O-])c2)nc2c1c(=O)n(C)c(=O)n2C,,"inconclusive [inhibitor, partial curve, poor fit]"

Structure (SMILES),"activity change, negative = inhibition",Potency
COc1ccccc1CCNC(=O)Cc1c(C)c2cc3c(C)coc3cc2oc1=O,inactive: 19.3%,
Cc1cc2c(N=NC(=O)C3CC3c3ccccc3)c(O)[nH]c2cc1Br (stereo unspecified),inactive: -14.9%,
Cc1nc(N)sc1C(=O)Nc1ccccc1,inactive: 5.38%,
O=C(CSc1n[nH]c(-c2ccccc2O)n1)NC1CCCCC1,,"inconclusive [inhibitor, full curve]"
O=C(COc1ccc(F)cc1)NCCN1CCCC1,,"inconclusive [inhibitor, full curve, poor fit]"
N#Cc1ccsc1NC(=O)CN1CCN(c2ccccn2)CC1,,"inconclusive [inhibitor, full curve, poor fit]"
Cc1ccc2c(c1)CCCN2C(=O)c1cccs1,inactive: -7.96%,
O=C(c1ccco1)N(Cc1cc2ccccc2[nH]c1=O)CC1CCCO1 (stereo unspecified),,"inconclusive [inhibitor, full curve]"
O=C(NCCc1ccccc1)c1c(F)cccc1F,inactive: 8.3%,
O=C(CN1C2=NCCCN2c2ccccc21)c1ccc([N+](=O)[O-])cc1,inactive: -3.36%,
CCC(C)n1c(SC(C)C#N)nc2ccccc2c1=O (stereo unspecified),,"inconclusive [inhibitor, partial curve, poor fit]"
CN1CCN(c2ccc(-c3cccc(NC(=O)COc4ccccc4)c3)nn2)CC1,,"inconclusive [inhibitor, partial curve, poor fit]"
CC(C)CCn1nnnc1C(c1ccc(N(C)C)cc1)N1CCN(C(=O)c2ccco2)CC1 (stereo unspecified),,"inconclusive [inhibitor, partial curve]"
CCC(=O)NS(=O)(=O)c1ccc(N=NN2CCCCC2)cc1,,"inconclusive [inhibitor, partial curve, poor fit]"
O=C1N/C(=C/c2ccco2)C(=O)N1Cc1ccccc1F,,"inconclusive [inhibitor, full curve]"
COc1ccc2oc(C(=O)OCC(=O)N3CC(C)OC(C)C3)c(C)c2c1 (stereo unspecified),,"inconclusive [inhibitor, full curve]"
Cc1ccc(C(=O)N2CCN(C)CC2)cc1S(=O)(=O)N1CCCCCC1,inactive: 2.6%,
CCOC(=O)Cn1c(=O)oc2cc(S(=O)(=O)NCCc3ccc(C)cc3)ccc21,,"inconclusive [inhibitor, full curve]"
O=C(Nc1ccc(F)cc1F)N1CCCCC1c1cccnc1 (stereo unspecified),,"inconclusive [inhibitor, full curve, poor fit]"
CCOC(=O)c1ccc(NC(=O)COc2cc3oc(=O)c(CC(C)O)c(C)c3cc2Cl)cc1 (stereo unspecified),,"inconclusive [inhibitor, full curve, poor fit]"
Nc1nnc(-c2ccc(Cl)c(Cl)c2)s1,,"inconclusive [inhibitor, single point]"
CCOc1ccc(NC(=O)CSc2nc3ccccc3c(=O)n2CCNC(C)=O)cc1,,"inconclusive [inhibitor, partial curve, poor fit]"
C#CCOCCOCCOCCNc1nc(N2CCN(C(=O)CCCCCCCCCCNC(=O)Cn3cc(C[C@@H](C)O)nn3)CC2)nc(N2CCN(C(=O)CCCCCCCCCCNC(=O)[C@H](CCCCN)n3cc(C[C@@H](C)CC)nn3)CC2)n1,inactive: -2.21%,
